Over roughly 33,000 sequences, “E-score (-0.5 to 0.5)” has its median near -0.011; the highest 2% begin near 0.28. The list shows a part of the results.
Target: T1, Gcr1 (UniProt P07261)
T1 sequence: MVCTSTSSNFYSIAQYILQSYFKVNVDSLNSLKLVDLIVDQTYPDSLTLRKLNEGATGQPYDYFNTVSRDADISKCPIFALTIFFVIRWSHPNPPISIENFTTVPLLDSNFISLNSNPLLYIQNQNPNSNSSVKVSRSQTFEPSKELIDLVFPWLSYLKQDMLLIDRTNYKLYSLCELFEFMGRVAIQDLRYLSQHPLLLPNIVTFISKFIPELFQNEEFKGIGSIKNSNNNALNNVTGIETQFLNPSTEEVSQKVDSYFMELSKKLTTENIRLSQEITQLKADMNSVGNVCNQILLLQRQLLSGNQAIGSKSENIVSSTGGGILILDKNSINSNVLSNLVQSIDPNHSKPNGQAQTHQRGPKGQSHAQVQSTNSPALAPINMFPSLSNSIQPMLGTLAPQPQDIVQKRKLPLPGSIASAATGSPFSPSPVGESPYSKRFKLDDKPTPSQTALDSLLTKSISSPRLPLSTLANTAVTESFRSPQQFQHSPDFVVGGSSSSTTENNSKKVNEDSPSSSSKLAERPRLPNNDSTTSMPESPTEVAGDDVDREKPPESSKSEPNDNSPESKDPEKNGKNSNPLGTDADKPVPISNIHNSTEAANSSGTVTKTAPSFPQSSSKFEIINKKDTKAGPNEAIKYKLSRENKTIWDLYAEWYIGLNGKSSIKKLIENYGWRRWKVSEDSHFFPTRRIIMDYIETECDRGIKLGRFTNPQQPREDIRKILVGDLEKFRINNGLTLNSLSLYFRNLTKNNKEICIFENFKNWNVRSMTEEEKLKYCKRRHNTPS
Test: PBM E-score (8-mer binding enrichment) (E-score (-0.5 to 0.5)); higher = stronger / more preferred TF binding; most listed sequences are background and not binding sites
Conditions: protein concentration: 100 nM; construct: GST-full length
Method: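 Universal 'all 10-mer' protein binding microarrays (Agilent AMADID 015681) probed with GST-tagged S. cerevisiae TFs (full-length or DBD) made by in vitro transcription/translation (PURExpress), about 100-200 nM. Bound TF was detected with fluorescent anti-GST. Each ungapped 8-mer (which stands for itself and its reverse complement) is scored by the PBM enrichment score (E-score), a modified Wilcoxon-Mann-Whitney statistic from -0.5 to +0.5, computed with the Universal PBM Analysis Suite. Scale: above 0.35 generally sequence-specific binding.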

Sequence | PBM E-score
ATGGCTGA | -0.0287
CGCCGGAC | -0.107
AATCGAAG | 0.0397
AACCCGAA | 0.206
TAGCACGA | 0.0376
ACCTCTTG | 0.0745
TGCTACCA | 0.154
CTACACTC | -0.0305
GTATCTGA | -0.00789
AGGTCATG | -0.0943
GATCTGTA | 0.00749
CGGGTGGC | -0.235
AGGCTTTG | -0.105
CCGTGACA | 0.142
AAGTGGAT | 0.136
AAACGTCT | -0.00888
CGTTGTCA | -0.00721
CTCCCGGC | 0.162
TTAGTCAA | -0.034
ATGCTCGG | 0.0517
AGGTCAGA | -0.151
GTCGATGA | 0.0898
CGATCTGC | -0.135
GCGAGGTA | -0.192
GAATACTC | -0.0794

Sequence | PBM E-score
ACGTGGGG | -0.243
ATACGAGA | -0.0301
GACTGGGC | 0.00445
ATACTTCC | -0.126
CAACTGTC | 0.0117
CCGAGGCC | -0.212
ATACTTGC | 0.0173
GCGAGTAC | -0.131
CCTCTAGA | 0.109
CTCTGCTC | -0.19
AGCTTAAT | 0.0654
CGTTGAAG | -0.118
AGTCAGCA | -0.0314
ACAGGGGA | 0.0822
TACGTGGA | 0.118
CCTTGTCC | -0.198
CTGAGTAA | 0.0552
ACTCCACG | 0.0164
ATAATAAC | 0.0616
CTAAGCCA | -0.21
GCCATCTA | -0.0834
CCTGTAGA | 0.283
AGAATAAG | 0.0415
AGATCAAA | -0.0267
ATACCCTG | -0.0852

Sequence | PBM E-score
ACAAACCA | -0.112
AACGCGCA | 0.106
ACTGCTGA | -0.112
AAATGAAG | -0.0707
ACGAGTAT | -0.0948
CATGTTGG | 0.00333
GGCAATCA | -0.1
ACCAAGCT | 0.0395
CACCAGGG | -0.0322
CTCCTTGA | -0.103
AGTTGGAC | 0.0302
GGGCCGCA | -0.0751
CCGTTAAC | -0.0522
AAAAAATT | 0.076
AGTCCCAG | -0.0514
CCTGGTGC | 0.219
CCTATGGA | 0.0149
ACGCGTGG | -0.0274
CAACTAAC | 0.00118
CCAGACGC | 0.235
AAACGGAA | 0.245
GCGGAGGA | -0.18
CAAGCAGA | 0.0707
ATAGCGCC | 0.196
ATTAGCTA | -0.117

Sequence | PBM E-score
CAACCGGC | -0.0444
ATTCGCCC | -0.151
ACCCTGCG | -0.0486
AAGTGCCT | 0.0162
ATGTGTAC | -0.134
ATGAGCTG | -0.234
AGCACTAC | -0.06
GGCATTTA | -0.124
CCAGATAA | 0.0427
TGCCCAAA | 0.0545
AACCTAAC | 0.0972
AAGGTGGG | -0.11
CAGTGCTC | -0.271
ATTAAGCA | -0.00262
CGCCCTGC | -0.0571
GAGGGAGA | -0.234
AAAACCTC | -0.0876
TAACATGA | -0.0404
AAGCTTAC | -0.143
TCGGTGAA | -0.0389
CGTAAATC | 0.0344
AGCCTACG | -0.271
CATTGGAC | -0.0003
ACTGTGCA | -0.0932
CCTTTTTA | 0.128

Sequence | PBM E-score
CGAGGTTA | -0.128
TGAGGCCA | -0.0123
AGCGAGGC | -0.00747
CGGGGTGA | 0.0584
AATCTATA | 0.189
ATAGGATG | 0.333
AAGCGTAC | -0.23
GATTTAGA | 0.265
CGCAACCG | 0.24
GACTTCGA | -0.0993
GCGAGTTA | -0.105
CAGCTTCG | 0.328
ATAGTAAG | -0.0276
CACGTACA | 0.0322
AGTCCGCC | -0.0958
ACGAAGTA | -0.169
GCTCAGGA | 0.147
AAAGTGTT | -0.0645
GGACCACA | 0.0469
CGTTTTAG | -0.0467
AGGCAGAT | 0.0845
CCTCCAGA | 0.159
AATGCGGT | 0.102
AGGTTCCA | 0.327
GGACTGTA | -0.251

Sequence | PBM E-score
ACATCGCT | -0.156
CGGCAAAC | 0.111
ACTCGGGG | -0.129
CAACGGCG | -0.163
AGTGTTGC | 0.0498
TAATCGCA | -0.0296
AGTCAGAG | -0.0859
AGCGTTGC | -0.129
AAGAGAAG | 0.0746
TAAATGCA | -0.16
CATCCCTC | -0.196
ATCATTGG | -0.0867
GGAGTCCA | 0.344
TAATTAAA | -0.0174
ATACACCC | -0.0665
CAAGTGAA | -0.089
TGAACGAA | -0.0917
ACGACAGG | -0.184
AATATGTA | 0.0989
AGGTTCGC | -0.0738
TAGAACGA | -0.0222
ACTCACCC | -0.126
ACTCCGCC | -0.277
CGGGAAAC | 0.191
ATACCCCC | -0.273

Sequence | PBM E-score
GGCGGAAA | 0.0382
CCTAGGTA | -0.219
AGGCTCAG | -0.0198
CCCAGACG | 0.0737
GAGAACCA | 0.123
ATACTCTC | -0.277
CCCCCACC | -0.142
CACGGGAA | -0.0813
CGGTCGTC | -0.122
ACCATGGT | -0.252
CCCCTTTA | 0.0437
ACTCTGAG | -0.0379
CCTCATGC | -0.348
ACAGCCAC | -0.00306
CACCCTGG | -0.0451
CCGTAACC | 0.141
ATTGCAGA | 0.122
CTCCCATA | 0.098
ATCTCTTG | -0.103
GAGGGAAA | -0.192
GCTACGCC | -0.14
AGGGCACT | -0.144

Reference: the supplement of paper PMC3334620
